In all, about 310,000 compounds went through this assay and about 14,000 (4.5%) showed an effect of 50% or more. Effects have a minus sign here. This is one part of the list.
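Also: peak tail current of the secondary pulse compared with the same well before compound.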

Sequence of human ether-à-go-go-related gene (hERG) potassium channel (Q12809 whole entry, looked up): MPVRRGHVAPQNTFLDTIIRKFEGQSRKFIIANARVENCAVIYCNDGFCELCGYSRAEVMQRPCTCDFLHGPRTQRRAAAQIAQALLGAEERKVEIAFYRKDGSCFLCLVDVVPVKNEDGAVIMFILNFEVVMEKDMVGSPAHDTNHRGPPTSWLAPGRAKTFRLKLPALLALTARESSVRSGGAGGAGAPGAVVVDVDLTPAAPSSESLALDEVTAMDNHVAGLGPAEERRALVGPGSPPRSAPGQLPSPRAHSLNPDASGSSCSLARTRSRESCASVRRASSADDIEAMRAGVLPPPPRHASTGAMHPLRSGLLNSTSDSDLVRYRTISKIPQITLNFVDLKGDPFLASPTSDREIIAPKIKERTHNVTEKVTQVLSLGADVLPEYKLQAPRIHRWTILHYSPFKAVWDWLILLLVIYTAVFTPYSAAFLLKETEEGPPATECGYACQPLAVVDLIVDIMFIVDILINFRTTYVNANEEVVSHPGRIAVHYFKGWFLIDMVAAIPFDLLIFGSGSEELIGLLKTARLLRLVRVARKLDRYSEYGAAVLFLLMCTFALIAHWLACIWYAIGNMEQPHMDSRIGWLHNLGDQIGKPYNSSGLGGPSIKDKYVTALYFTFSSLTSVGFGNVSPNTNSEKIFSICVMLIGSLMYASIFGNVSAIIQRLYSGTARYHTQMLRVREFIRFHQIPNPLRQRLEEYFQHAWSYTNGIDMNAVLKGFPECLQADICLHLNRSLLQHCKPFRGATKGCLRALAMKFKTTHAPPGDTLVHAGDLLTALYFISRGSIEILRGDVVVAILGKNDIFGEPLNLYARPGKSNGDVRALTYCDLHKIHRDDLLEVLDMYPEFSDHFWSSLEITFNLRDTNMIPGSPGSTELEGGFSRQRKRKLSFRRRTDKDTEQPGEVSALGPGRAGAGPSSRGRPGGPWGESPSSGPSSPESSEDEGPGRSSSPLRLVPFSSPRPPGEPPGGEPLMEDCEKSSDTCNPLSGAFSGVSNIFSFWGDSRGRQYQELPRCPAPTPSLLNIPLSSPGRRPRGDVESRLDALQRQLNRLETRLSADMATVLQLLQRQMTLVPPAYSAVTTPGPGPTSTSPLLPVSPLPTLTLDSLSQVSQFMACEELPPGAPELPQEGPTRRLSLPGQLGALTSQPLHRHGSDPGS

This experiment has as its target human ether-à-go-go-related gene (hERG) potassium channel (human, UniProt Q12809). Nature of the experiment: primary screen, population patch clamp on CHO cells stably expressing hERG.
On to `O=C(O)c1ccc(N=N/C(=N\Nc2ccc(C(=O)O)cc2)c2ccccc2)cc1`, for which the “hERG current change (%, negative = inhibition) at 10uM” value was found to be 7.16%.
For `CCOC(=O)c1c(C2COc3ccccc3O2)csc1N` (centres unmarked) the value was -23.5%; for `COc1ccc(Cc2nc3ccc(C(=O)N(C)CCCN4CCOCC4)cc3o2)cc1`, 10%; for `CC(C)(C)NC(=O)CN(C(=O)CS(=O)CC(=O)Nc1ccc(F)cc1)c1ccccc1` (centres unmarked), 5.7%.
On to `Cc1c(NC(=O)Nc2cc(F)c(F)cc2Cl)c(=O)n(-c2ccccc2)n1C`, for which the “hERG current change (%, negative = inhibition) at 10uM” value came out at 8.26%.
For `COC(=O)c1c(NC(=O)CN2CCN(Cc3ccc4c(c3)OCO4)CC2)sc(C)c1C.O=C(O)C(=O)O` the value was -28.9%; for `CCOc1ccccc1N1CCN(C(=O)c2ccc(-c3ccc(OC(C)=O)cc3)cc2)CC1`, 10.5%; for `CCCCNC(=O)NS(=O)(=O)c1ccc(NC(=O)C(NC(N)=O)C(C)CC)cc1` (centres unmarked), 11.7%.
To `COc1ccc(/C=C/C2=Nc3ccccc3NC(C)(C)C2)cc1OC` belongs -49.4%.
For `O=C(Nc1ccc(NC(=O)c2ccco2)cc1)c1ccc2c(c1)OCCO2` the value was 3.52%; for `COc1ccc(CCc2nnc(CCC(=O)N(C)Cc3ccncc3C)o2)cc1`, 2.58%; for `CSc1ccccc1OCc1cc(C(=O)N2CCN3CCCC3C2)no1` (centres unmarked), -3.75%.
As for `CCOC(=O)C(C)Sc1nc(=O)n2cccc(C)c2n1` (centres unmarked), the “hERG current change (%, negative = inhibition) at 10uM” value is on record as -2.64%.
To `S=c1[nH]nc(COc2ccccc2)n1/N=C/c1ccc(Cl)cc1` belongs 22.4%; to `CCc1nn(CC(=O)Nc2cc(C)ccc2C)c(=N)s1.Cl`, 6.21%; to `Cn1c(SCC(=O)Nc2ccc3c(c2)CCC3)nnc1C1CC1`, -18.6%.
To `O=C(CCNC(=O)c1ccccc1)NCCc1ccc(Cl)cc1` belongs 2.41%; to `COc1ccc(/C=N/N=C(\N)c2nonc2N)cc1OC`, -0.49%.
To `O=C(CSc1nnnn1-c1ccccc1)Nc1ncc(Cc2cc(Cl)ccc2Cl)s1` belongs 12.9%.
Regarding `CCOc1cc(NC(=O)C2CC2)c(OCC)cc1NC(=O)c1cccc(F)c1`, the “hERG current change (%, negative = inhibition) at 10uM” value came out at 11.9%.
For `O/N=C1/CCCCc2sccc21` the value was -3.33%.
Take `Cc1c(Cl)cccc1-n1cnc(=O)c2ccccc21`: the “hERG current change (%, negative = inhibition) at 10uM” value is -12.3%.
To `COc1ccc(OCC(=O)Nc2ccccc2C(=O)NC(C)C)cc1` belongs 11.9%.
For `N/C(=N\OC(=O)COc1ccc2ccccc2c1Br)c1cccnc1` the value was 12.9%.
For `Cc1ccc(S(=O)(=O)N2C(=O)CCC2C(=O)O/N=C(\N)c2ccc([N+](=O)[O-])cc2)cc1` (centres unmarked) the value was 17.8%; for `CCN(CCCNC(=O)CN(C)S(=O)(=O)c1cccc2nsnc12)c1cccc(C)c1`, -6.79%; for `CC(C)C[C@H](NC(=O)c1[nH]cnc1C(=O)N[C@@H](Cc1ccccc1)C(=O)OCc1ccccc1)C(=O)OCc1ccccc1`, 21.6%.
Consider `Cc1noc(C)c1C(=O)OC(C)C(=O)N1CCc2ccccc21` (centres unmarked), for which the “hERG current change (%, negative = inhibition) at 10uM” value was 4.27%.
To `O=C(Nc1ccc(N2CCCCC2)cc1)c1ccccn1` belongs 28.4%; to `CSc1cccc(N=C2C(=O)Nc3ccccc32)c1`, 2.41%; to `CCOC(=O)c1sc(N)c(C(=O)OCC)c1COC(=O)C1CC(=O)N(Cc2ccco2)C1` (centres unmarked), -19.3%.
For `CC(=O)c1cccc(NC(=O)CCc2nnc3ccc(N4CCN(C)CC4)nn23)c1` the value was 15.3%; for `CCOc1ccc(C(NC(=O)c2ccco2)c2ccc(OC)c(OC)c2)cc1` (centres unmarked), -39.9%; for `O=C(CCC1CCCC1)N1CCN(C2CCCC2)CC1.O=C(O)C(=O)O`, -46.6%.
For `C=CCCC(=O)N1CCC(CCC(=O)NC2CC2)CC1` the value was 5.17%; for `CN=C(Nc1cc(C)nn1CCC#N)c1ccccc1F`, -0.669%; for `CCOC(=O)N1CCN(Cc2nc3c(c(=O)n(C)c(=O)n3C)n2CCC(C)C)CC1`, -31.9%.
As to `CCc1nc2ccc(C(=O)NCc3ccc(C)o3)cc2nc1CC`, the “hERG current change (%, negative = inhibition) at 10uM” value is -26.6%.
For `Cc1ccc(OCCn2c(=S)[nH]c3ccccc32)c(C(C)C)c1` the value was 14%.
`Cc1cccc(CC2SC(N3CCN(c4ccccc4)CC3)=NC2=O)c1` (centres unmarked): the “hERG current change (%, negative = inhibition) at 10uM” value is -53.5%.
For `CCC1Sc2ccc(S(=O)(=O)CCC(=O)Nc3ccc(OC(F)(F)F)cc3)cc2NC1=O` (centres unmarked) the value was 15.9%.
To `Cc1ccc(NC(=O)N(Cc2cccnc2)Cc2ccco2)cc1C` belongs -27.2%.
To `C=CCOC(=O)C1=C[C@@H](c2ccc(Br)cc2)C[C@@H](OCc2ccc(CO)cc2)O1` belongs -14.7%; to `O=C(O)CN1CCN(C(c2ccccc2)c2ccccc2)CC1`, 30.4%.
In the case of `Brc1ccc(-c2cn3c(n2)SCC3)cc1`, the “hERG current change (%, negative = inhibition) at 10uM” value turned out to be 11.2%.
To `COc1cc(C(=O)N2CCN(C/C=C/c3ccccc3)CC2)cc(OC)c1C` belongs -30.2%.
For `C/C(=N/NC(=O)Cc1cccn1C)c1ccccc1`, the “hERG current change (%, negative = inhibition) at 10uM” value stood at 9.2%.
`Cc1ccnc(NS(=O)(=O)c2ccc(N3C(=O)c4ccccc4C3=O)cc2)n1`: the “hERG current change (%, negative = inhibition) at 10uM” value is -2.73%.
For `CCCCn1cnc2sc(-c3ccccc3)cc2c1=O` the value was -0.714%; for `Cc1ccccc1C(=O)Nc1c(-c2cccs2)c(=O)c2ccccc2n1C`, 16%.
As for `CCOc1ccccc1NC(=O)Nc1ccc2c(c1)CCC2`, the “hERG current change (%, negative = inhibition) at 10uM” value is reported as -34.5%.
`CC1(C)C(=O)OC(/C=C\c2ccccc2)C(C)(C)C1=O` (centres unmarked): the “hERG current change (%, negative = inhibition) at 10uM” value is listed as -0.637%.
For the compound `O=C(NCc1ccco1)c1ccc(NS(=O)(=O)c2cccc([N+](=O)[O-])c2)cc1`, the “hERG current change (%, negative = inhibition) at 10uM” value is 12%.
For `CC(NC(=O)CSc1nc2c(cc1C#N)CN(C)CC2)c1ccccc1` (centres unmarked) the value was -20.3%; for `O=C(NCc1ccccn1)c1ccc(Cl)s1`, 1.79%; for `Cn1c(C(=O)c2ccncc2)cc2ccccc21`, -21.3%.
To `O=C1CN(C(=O)CSc2nc3c(cnn3-c3ccccc3)c(=O)[nH]2)c2ccccc2N1` belongs 1.82%.
In the case of `COc1c(Cl)cc(C(=O)NCc2ccco2)cc1Cl`, the “hERG current change (%, negative = inhibition) at 10uM” value was -8.64%.
For `NNC(=S)Nc1ccccc1Cl` the value was -0.568%; for `COC(=O)C1=C(C(=O)OC)[C@@H]2N(Cc3ccccc3)c3ccccc3[C@@]23C[C@@H](C(=O)OC)N=C3N1`, -17.4%; for `Nc1nc(NCC2CCCO2)nc(Nc2cccc(F)c2)c1[N+](=O)[O-]` (centres unmarked), 5.23%.
For `Cc1no[n+]([O-])c1COc1cccc(/C=N/Nc2nncn2N)c1` the value was 8.32%.
To `COc1ccc(CCC(=O)NNC(=O)Nc2ccc(C(C)=O)cc2)cc1` belongs 16.8%; to `Cc1ccc(C(=O)NCc2ccc3c(c2)OCO3)cc1`, 1.64%; to `C=CCOc1c(Cl)cc(CNn2cn[nH]c2=S)cc1OC`, 13.1%.
Consider `O=C(Nc1cccc(Cl)c1)N(CCCN1CCOCC1)Cc1ccccc1F`, for which the “hERG current change (%, negative = inhibition) at 10uM” value is recorded as -64.5%.
To `Cc1cc(-c2nnc(CCC(=O)NCCc3ccccc3F)o2)no1` belongs -16.8%.
To `C[C@]12CCC(=O)C=C1CC[C@@H]1[C@@H]2C(=O)C[C@]2(C)C(=O)CC[C@@H]12` belongs 7.99%; to `CCN1C(=O)Nc2cccc3cccc1c23`, 1.65%; to `COc1ccccc1Nc1ncnc2ccccc12`, -6.1%.
To `CCN(C(=O)Cn1c(=O)oc2ccccc21)c1ccc(C)c(C)c1` belongs -6.52%; to `O=C(Nc1sc2c(c1C(=O)O)CCC2)c1ccccc1`, 5.69%; to `O=[N+]([O-])c1ccc(CN2CCC(Cc3ccccc3)CC2)cc1`, -55.1%.
Turning to `CC1=CC(c2ccccc2)n2nnnc2N1` (centres unmarked), the “hERG current change (%, negative = inhibition) at 10uM” value amounted to 18.3%.
To `CC(/C=N\NC(=O)CN1CCN(S(=O)(=O)c2ccc(C)cc2)CC1)=C\c1ccccc1` belongs -68.1%.
To `Cc1cc(Cl)c(S(=O)(=O)NC(C(=O)O)c2ccccc2)cc1OCC(N)=O` (centres unmarked) belongs -0.102%.
Take `Cn1c(=O)oc2cc(S(=O)(=O)N3CCCc4ccccc43)ccc21`: the “hERG current change (%, negative = inhibition) at 10uM” value was -20.8%.
To `COCC(=O)N1CCC(Oc2ccc(C(=O)NC(C)c3csc(C)n3)cc2)CC1` (centres unmarked) belongs 10.4%.
To `O=C(NCc1nc2ccccc2[nH]1)c1cccc(S(=O)(=O)N2CCCC2)c1` belongs 1.26%; to `COc1ccccc1-c1sc2cc3c(cc2c1C#CC1(O)CCCCC1)OCO3`, 13.2%.
To `COc1ccc(-n2c(Cc3cccn3C)nnc2SCC(=O)Nc2ccc(C)cc2C)cc1` belongs -39.3%; to `CC(=O)c1c(C)cc(C)c(CSc2ccccn2)c1C`, 17.2%.
With `CC(C)OC(=O)Cn1nc(C(F)(F)F)c2c1CCCC2`, the “hERG current change (%, negative = inhibition) at 10uM” value turned out to be 9.23%.
To `COc1ccc(C)cc1NC(=O)CNc1ccccc1CN(C)C1CCCCC1` belongs -19.6%; to `CCCNC(=O)C1CC(c2ccc(C(F)(F)F)cc2)=NO1` (centres unmarked), -23.8%; to `Cl.Clc1cccc(CSC2=NCCCN2)c1`, -0.133%.
As to `CN(C(=O)CSc1nc(-c2ccccc2)cs1)C1CCS(=O)(=O)C1` (centres unmarked), the “hERG current change (%, negative = inhibition) at 10uM” value is -19.6%.
As to `Cc1ccc(-c2nnc(N(C)C(=O)c3ccccn3)s2)cn1`, the “hERG current change (%, negative = inhibition) at 10uM” value is on record as 8.47%.
For `Cc1ccc(NC(=O)CCC(=O)NNS(=O)(=O)c2ccc(Cl)cc2)cc1C` the value was 1.62%.

The record behind these values is PMC4336329 (PLoS ONE, 2015).
